Data from PMC4336329 (PLoS ONE, 2015).
Out of some 310,000 compounds screened, about 2,200 (0.71%) showed an effect of 50% or more. Effects have a minus sign here. Some of the results follow.

Molecular target: human ether-à-go-go-related gene (hERG) potassium channel (human, UniProt Q12809)
Test: primary screen, population patch clamp on CHO cells stably expressing hERG

human ether-à-go-go-related gene (hERG) potassium channel, sequence (Q12809 whole entry, looked up): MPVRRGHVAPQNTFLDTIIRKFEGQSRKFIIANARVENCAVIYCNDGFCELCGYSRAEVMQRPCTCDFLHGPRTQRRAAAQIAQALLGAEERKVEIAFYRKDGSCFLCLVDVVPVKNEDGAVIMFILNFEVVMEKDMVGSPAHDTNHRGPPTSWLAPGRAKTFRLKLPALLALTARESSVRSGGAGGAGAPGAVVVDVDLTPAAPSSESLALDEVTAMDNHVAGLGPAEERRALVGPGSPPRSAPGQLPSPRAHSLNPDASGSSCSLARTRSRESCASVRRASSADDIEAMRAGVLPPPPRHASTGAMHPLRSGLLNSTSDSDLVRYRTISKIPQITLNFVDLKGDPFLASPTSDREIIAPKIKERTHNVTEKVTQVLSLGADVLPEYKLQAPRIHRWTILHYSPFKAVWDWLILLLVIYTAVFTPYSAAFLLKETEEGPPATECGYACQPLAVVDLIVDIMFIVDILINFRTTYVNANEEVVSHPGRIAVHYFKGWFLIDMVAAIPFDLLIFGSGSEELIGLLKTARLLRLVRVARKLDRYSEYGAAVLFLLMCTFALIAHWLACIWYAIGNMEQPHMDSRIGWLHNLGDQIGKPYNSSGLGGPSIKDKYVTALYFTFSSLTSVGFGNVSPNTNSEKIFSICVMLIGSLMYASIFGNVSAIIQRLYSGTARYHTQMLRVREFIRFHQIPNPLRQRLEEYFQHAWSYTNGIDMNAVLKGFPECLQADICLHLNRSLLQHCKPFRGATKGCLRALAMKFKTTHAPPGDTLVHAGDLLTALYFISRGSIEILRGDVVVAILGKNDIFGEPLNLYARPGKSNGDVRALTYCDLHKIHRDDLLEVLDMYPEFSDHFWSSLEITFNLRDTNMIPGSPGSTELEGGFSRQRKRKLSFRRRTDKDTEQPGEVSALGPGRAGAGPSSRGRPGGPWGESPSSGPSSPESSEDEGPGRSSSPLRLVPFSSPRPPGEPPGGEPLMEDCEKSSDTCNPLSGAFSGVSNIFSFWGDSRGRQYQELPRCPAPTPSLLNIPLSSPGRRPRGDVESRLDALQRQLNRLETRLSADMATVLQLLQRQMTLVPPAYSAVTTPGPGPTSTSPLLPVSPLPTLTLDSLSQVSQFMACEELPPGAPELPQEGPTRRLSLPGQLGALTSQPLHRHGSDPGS

Structure (SMILES)	hERG current change (%, negative = inhibition) at 1uM
CCn1c(SCC(=O)Nc2nnc(C)s2)nnc1-c1ccncc1	8.28%
Cc1ccc2cc(CN(CC3CCCO3)C(=O)Nc3ccccc3F)c3nnnn3c2c1 (stereo not drawn)	2.93%
O=C(CCCC(=O)OCC(=O)c1cccs1)Nc1ccc(Oc2ccccc2)cc1	3.88%
CC(O)c1nc2ccc(Cc3ccc4nc(C(C)O)[nH]c4c3)cc2[nH]1 (stereo not drawn)	-2.06%
COc1ccc(NC(=O)CCCC(=O)O)cc1Cl	7.49%
O=C(O)CC(C(=O)O)c1ccc(OCCCCOc2ccc(C(CC(=O)O)C(=O)O)cc2)cc1 (stereo not drawn)	14.7%
COc1cc(/C=N/n2c(SC)nnc(C(C)(C)C)c2=O)ccc1O	2.9%
COc1ccc(C(=O)NC(=O)COC(=O)c2ccc3ncsc3c2)cc1	12.4%
O=C1CC(c2ccc(Cl)cc2)CC(=O)C1CS(=O)(=O)c1ccccc1 (stereo not drawn)	11.4%
Cc1sc2nc(SCC(=O)NCc3cccs3)[nH]c(=O)c2c1C	10.8%
COc1cccc(CC(NC(C)=O)C(=O)NC2CCN(S(=O)(=O)c3ccc4ccccc4c3)CC2)c1 (stereo not drawn)	8.45%
CC(=O)NCCc1nc2cc(NC(=O)Nc3ccccc3)ccc2n1C	-20.3%
CC(C)c1nnc(NC(=O)COc2ccc3c(c2)OCO3)s1	17.9%
COC(=O)C1=C(C)N(C)C(=O)NC1c1c(OC)ccc2ccccc12 (stereo not drawn)	13.3%
CN(c1ccccc1)S(=O)(=O)c1ccc2[nH]c(=O)oc2c1	19.7%
O=C(c1cc2ccccc2oc1=O)N(Cc1cccs1)C1CCS(=O)(=O)C1 (stereo not drawn)	9.9%
Cc1cc(C(=O)NC2CCCc3ccccc32)c(C)o1 (stereo not drawn)	6.33%
Cc1cc(C)c(OCCN2C(=O)NC(C)(C)C2=O)c(Cl)c1	14.8%
O=C(CCCCCNc1nc(=S)[nH]c2ccccc12)NCCc1ccccc1	3.87%

Structure (SMILES)	hERG current change (%, negative = inhibition) at 1uM
CC(C)c1ccc(NC(=O)c2ccccc2NC(=O)C2CC=CCC2C(=O)O)cc1 (stereo not drawn)	9.12%
CCCC(=O)NNC(=O)c1ccoc1C	6.13%
COc1cccc(-c2cc(C(=O)NCCc3ccccc3)no2)c1	13.8%
CCc1noc(C)c1C(=O)NC1CCCc2c1cnn2-c1cc(C)cc(C)c1 (stereo not drawn)	11.1%
CCN(Cc1ccncc1)C(=O)CSc1ccc2ccccc2c1	3.12%
CCCCCC(=O)NNC(=S)NC(=O)c1ccc([N+](=O)[O-])cc1	2.2%
CC(C)CCNC(=O)CCn1c(=S)oc2ccccc21	4.63%
COC(=O)Cc1cc(=O)[nH]c(/N=C(\N)Nc2ccc(C(C)C)cc2)n1	10.9%
C=CCN1C(=NC(=O)COc2ccc(Cl)cc2)SC2CS(=O)(=O)CC21 (stereo not drawn)	5.94%
C=CCOC(=O)C1=C[C@@H](c2ccc(C(F)(F)F)cc2)C[C@@H](OCCCCO)O1	6.52%
Cc1ccc(S(=O)(=O)N/N=C\c2ccccc2OCc2ccccc2)cc1	18.4%
CC(C)(C)NC(=O)Nc1ccc2nccnc2c1	1.63%
O=C/C=C/c1c(-c2ccccc2)cc2oc3ccccc3cc1-2	11.7%
Cc1ccc(CNC(=O)Cc2ccc(NC3=NC4CS(=O)(=O)CC4S3)cc2)cc1 (stereo not drawn)	10.3%
COc1ccc(C2CC(c3cccs3)=NN2C(=O)CCC(=O)O)cc1OC (stereo not drawn)	4.43%
CC(C)Oc1ccc(CNC2CCOC(C)(C)C2)cc1 (stereo not drawn)	15.6%
CCOc1ccccc1N(C(=O)CNC(=O)c1ccco1)C(C(=O)NC1CCCC1)c1ccncc1 (stereo not drawn)	12.1%
CCOc1ccc2nc(N/C(N)=N/C(=S)Nc3ccc(C)c(C)c3)nc(C)c2c1	6.79%
Cc1ccc(S(=O)(=O)N2CCC(C(=O)NCCc3ccccc3)CC2)cc1	0.622%

Structure (SMILES)	hERG current change (%, negative = inhibition) at 1uM
NC(=O)[C@@H]1CCCN1Cc1nc(Cc2cccc(C(F)(F)F)c2)no1	7.55%
N#CCSc1nnc(CNc2ccc(F)cc2)o1	6.74%
CC(C)c1ccc(Nc2cnn(C34CC5CC(CC(CC(=O)O)(C5)C3)C4)c(=O)c2Cl)cc1	7.89%
Cc1noc(C)c1CSc1ccccc1C(=O)N1CCN(c2ccccc2)CC1	9.21%
CCn1c(-c2nn(-c3ccccc3)ccc2=O)n[nH]c1=S	9.34%
Cn1c2ccccc2c(=O)c2ccc(C#CC3(N)CCCCC3)cc21	0.0403%
Cc1ccc(SCCC(=O)N(C)C)cc1	2.1%
Cc1cc(C(=O)N2CCCC(C(=O)c3cccc4ccccc34)C2)nc(C)n1 (stereo not drawn)	12.6%
CCc1nc(SCC(=O)Nc2nccs2)c2oc3ccccc3c2n1	11.8%
CC(=O)NC1=NN(C(C)=O)C(c2ccccn2)S1 (stereo not drawn)	3.87%
CCCc1noc2c1/C(=N\O)CC(CC(C)SCC)C2 (stereo not drawn)	9.48%
CCCn1c(=N)n(CC(O)COc2ccc(C)cc2)c2ccccc21.Cl (stereo not drawn)	-68%
O=C(Cc1ccccc1)Nc1cccc(-c2nnc(-c3ccco3)o2)c1	-0.0978%
O=C(NC1CCCCC1)C(c1ccco1)N(CCc1ccccc1)C(=O)C(F)(F)F (stereo not drawn)	7.77%
CCc1nnc(NC(=O)c2cccc(OC)c2)s1	12.9%
COc1ccc(C(=O)/C=C/c2ccc(OC(=O)c3cc(OC)c(OC)c(OC)c3)cc2)cc1	1.08%
O=C(C1CCCN(CCCc2ccccc2)C1)N1CCCCCC1.O=C(O)C(=O)O (stereo not drawn)	-5.81%
COC(=O)c1ccc(C(c2c(C)n(C)n(-c3ccccc3)c2=O)c2c(C)n(C)n(-c3ccccc3)c2=O)cc1	14.9%
CCOC(=O)C1CCN(C(=O)CCCNC(=O)Cn2cnc3sc(C)c(C)c3c2=O)CC1	14.1%
